Source: PubChem BioAssay AID504333 (National Center for Advancing Translational Sciences (NCATS), 2011)
Where “and” joins values, the source holds several entries; their conditions need not be identical. Equal values may be shown once. The whole screen tested about 360,000 compounds, of which about 16,000 (4.4%) were called active. The inconclusive results got no clear call from the source; some entries with a clear call stand among them for comparison. Calls follow the shape of the dose curve; as a rule, active = well fitted inhibition curve with a large enough effect; inconclusive = small, poorly fitted or top-dose-only effect; inactive = no such curve, though single readings can be large or run the other way. Potencies beside an inconclusive call are fits to weak or partial responses and may not hold up.

What follows are compounds tested against Bromodomain adjacent to zinc finger domain protein 2B (Homo sapiens) (UniProt Q9UIF8) (assay: qHTS Assay for Inhibitors of BAZ2B). Details: AlphaScreen BAZ2B-H3K14Ac peptide displacement; activity change, negative = inhibition: at 114 µM (top of the series).
How it was run: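 AlphaScreen displacement: compounds (up to 110uM) incubated 30 min at room temperature with a preformed 50 nM BAZ2B/50 nM biotinylated H3K14Ac peptide complex in PBS pH 7.4 with Tween-20. Donor and acceptor beads at 10 ug/mL final added, 20 min light-protected before reading.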
% is scaled to controls: 0 for no effect and ±100 for the full control effect; potency is read from the fitted curve at half-maximal effect; tags tell the direction and shape of the fitted curve.
Also: nearly all actives have a fitted effect of over 60% in size.

Sequence of UniProt Q9UIF8 (Q9UIF8 whole entry, looked up, the tested form may be a part): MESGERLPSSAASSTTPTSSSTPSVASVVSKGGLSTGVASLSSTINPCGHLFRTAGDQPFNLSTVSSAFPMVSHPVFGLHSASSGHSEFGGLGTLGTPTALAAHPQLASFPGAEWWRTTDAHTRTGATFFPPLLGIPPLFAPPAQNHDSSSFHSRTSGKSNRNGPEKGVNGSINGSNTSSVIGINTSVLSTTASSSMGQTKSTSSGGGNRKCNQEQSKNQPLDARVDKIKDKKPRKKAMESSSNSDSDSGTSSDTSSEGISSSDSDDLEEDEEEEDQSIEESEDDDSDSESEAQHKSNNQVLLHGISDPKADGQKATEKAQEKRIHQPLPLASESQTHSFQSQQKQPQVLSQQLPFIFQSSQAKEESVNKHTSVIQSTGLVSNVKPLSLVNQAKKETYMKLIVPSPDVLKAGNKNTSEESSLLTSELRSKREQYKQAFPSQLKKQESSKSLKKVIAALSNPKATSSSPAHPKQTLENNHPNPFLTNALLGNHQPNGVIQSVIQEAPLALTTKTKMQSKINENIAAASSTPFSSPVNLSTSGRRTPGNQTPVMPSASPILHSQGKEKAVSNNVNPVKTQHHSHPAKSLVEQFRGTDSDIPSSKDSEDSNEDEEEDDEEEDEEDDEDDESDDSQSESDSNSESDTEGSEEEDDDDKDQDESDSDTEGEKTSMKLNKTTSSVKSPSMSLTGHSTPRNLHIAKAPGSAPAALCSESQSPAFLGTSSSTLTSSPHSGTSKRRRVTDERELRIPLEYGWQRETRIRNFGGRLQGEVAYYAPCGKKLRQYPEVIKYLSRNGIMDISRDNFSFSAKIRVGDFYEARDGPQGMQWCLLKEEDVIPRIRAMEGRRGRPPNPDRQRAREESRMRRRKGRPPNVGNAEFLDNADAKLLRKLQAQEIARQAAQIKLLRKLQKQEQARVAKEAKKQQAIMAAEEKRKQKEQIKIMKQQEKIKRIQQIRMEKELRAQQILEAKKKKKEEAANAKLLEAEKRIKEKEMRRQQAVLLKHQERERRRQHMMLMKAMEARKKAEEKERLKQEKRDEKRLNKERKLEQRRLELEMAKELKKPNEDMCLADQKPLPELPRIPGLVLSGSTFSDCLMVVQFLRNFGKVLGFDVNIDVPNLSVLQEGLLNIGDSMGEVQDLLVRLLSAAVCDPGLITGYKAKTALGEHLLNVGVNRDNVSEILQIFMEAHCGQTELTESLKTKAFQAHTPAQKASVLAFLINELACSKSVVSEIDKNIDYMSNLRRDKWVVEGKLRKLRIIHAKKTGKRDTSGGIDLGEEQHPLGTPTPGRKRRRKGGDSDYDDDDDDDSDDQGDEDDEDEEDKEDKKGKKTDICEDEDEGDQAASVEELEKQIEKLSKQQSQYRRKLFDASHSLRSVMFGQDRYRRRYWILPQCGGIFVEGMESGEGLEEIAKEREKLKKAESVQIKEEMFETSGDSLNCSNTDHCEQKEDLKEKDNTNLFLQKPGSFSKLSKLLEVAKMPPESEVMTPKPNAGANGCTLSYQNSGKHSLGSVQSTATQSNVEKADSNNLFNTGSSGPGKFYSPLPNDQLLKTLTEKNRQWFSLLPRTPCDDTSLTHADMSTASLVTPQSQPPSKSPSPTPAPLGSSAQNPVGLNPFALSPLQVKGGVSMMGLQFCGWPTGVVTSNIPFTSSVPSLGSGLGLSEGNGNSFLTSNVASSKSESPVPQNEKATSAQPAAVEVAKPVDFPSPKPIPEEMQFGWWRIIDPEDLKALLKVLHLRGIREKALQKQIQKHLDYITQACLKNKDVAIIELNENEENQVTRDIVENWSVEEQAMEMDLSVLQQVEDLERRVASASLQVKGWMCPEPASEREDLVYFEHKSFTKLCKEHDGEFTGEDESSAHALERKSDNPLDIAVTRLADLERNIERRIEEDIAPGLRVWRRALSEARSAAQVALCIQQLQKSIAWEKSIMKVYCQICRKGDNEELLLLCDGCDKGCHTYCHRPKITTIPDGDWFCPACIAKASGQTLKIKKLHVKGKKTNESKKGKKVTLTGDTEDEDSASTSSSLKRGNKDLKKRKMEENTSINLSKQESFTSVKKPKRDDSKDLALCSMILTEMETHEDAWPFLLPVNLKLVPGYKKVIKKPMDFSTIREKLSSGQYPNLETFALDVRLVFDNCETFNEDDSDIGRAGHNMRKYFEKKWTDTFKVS

With NS(=O)(=O)c1ccc(CCNC(=O)CNS(=O)(=O)c2cccc(Br)c2)cc1 as the compound, how does the Potency read?
Its Potency is inconclusive: 89.1 µM [inhibitor, single point].

With COc1cccc(N2CCN(Cc3ccco3)CC2)c1 as the compound, how does the Potency read?
The Potency was inconclusive: 89.1 µM [inhibitor, single point].

With CCOc1ncccc1C(=O)N1CCN(S(=O)(=O)c2ccc3ccccc3c2)CC1 as the compound, how does the “activity change, negative = inhibition” value read?
The value was inactive: -24.3%.

Which Potency does the source give for Cc1nc2ccc([N+](=O)[O-])cc2c(=O)n1Cc1ccc([N+](=O)[O-])cc1 here?
Its Potency is inconclusive: 89.1 µM [inhibitor, single point].

Cc1cc(C)nc(NC(=O)CSc2nc3cc(Cl)ccc3s2)n1 was tested. Which Potency did it give?
The Potency was inconclusive: 89.1 µM [inhibitor, single point].

For Cn1cnc([N+](=O)[O-])c1SCC(O)CCl (configuration not stated), which “activity change, negative = inhibition” value is on record?
The value was inactive: -23.5%.

For Fc1ccc(-c2nc(Nc3cccc(Cl)c3)nc3c2COc2ccccc2-3)cc1, which “activity change, negative = inhibition” value is on record?
Its value is inactive: -17.8%.

For COc1ccccc1C(=O)NC(=S)Nc1cc(C(=O)O)ccc1C, which “activity change, negative = inhibition” value is on record?
Its value is inactive: 0.831%.

CCOc1cc(C2C(C(=O)OC)=C(C)NC3=C2C(=O)c2ccccc23)cc(Cl)c1O (configuration not stated) was tested. Which Potency did it give?
The Potency was inconclusive: 56.2 µM [inhibitor, partial curve].

Which “activity change, negative = inhibition” value does the source give for COc1cccc(C(=O)Nc2cccc(NC(=O)c3ccccc3Cl)c2)c1 here?
The value was inactive: -7.43%.

How did the “activity change, negative = inhibition” value turn out when O=C(CCC1N=C2c3ccccc3N=C(SCc3ccccc3F)N2C1=O)NC1CCCCC1 (configuration not stated) was run?
The value was inactive: -9.12%.

Which Potency does the source give for COc1ccc(C(=O)COC(=O)c2ccccc2O)c(OC)c1 here?
Its Potency is active: 50.1 µM.

For COC(=O)c1ccc(NC(=O)CSc2ccccc2)cc1, which “activity change, negative = inhibition” value is on record?
Its value is inactive: 12%.

How did the Potency turn out when O=C(c1ccccc1F)N1CCN(c2ccc([N+](=O)[O-])c(NCc3cccnc3)c2)CC1 was run?
The Potency was inconclusive: 50.1 µM [inhibitor, partial curve].

For Cc1cccc(NC(=O)C2C3C=CC(O3)C2C(=O)O)c1 (configuration not stated), which “activity change, negative = inhibition” value is on record?
Its value is inactive: 4.43%.

Which Potency does the source give for CCCNC(=O)c1ccc(N2CCC3(CC2)CC(c2ccccc2)=NO3)c(NC(=O)Cc2ccc(F)cc2)c1 here?
The Potency was inconclusive: 56.2 µM [inhibitor, partial curve].

Which Potency does the source give for CCc1ccc(C(=O)c2cn(CC(=O)Nc3ccc(F)c(F)c3)c3cc(OC)c(OC)cc3c2=O)cc1 here?
Its Potency is active: 79.4 µM.

For Cc1ccc(Cl)cc1N1CCN(C(=O)C2CCN(S(=O)(=O)c3c(C)nn(C)c3C)CC2)CC1, which Potency is on record?
The Potency was inconclusive: 89.1 µM [inhibitor, single point].

With Cc1c(Cl)cccc1NC(=S)NCc1ccco1 as the compound, how does the Potency read?
The Potency was inconclusive: 70.8 µM [inhibitor, single point].

Which Potency does the source give for C[C@@H]1NC(=O)N(CCCn2ccnc2)C1=O here?
The Potency was active: 50.1 µM.

For CC1=NN(C(=O)c2ccc(Cl)cc2)C(O)(c2ccccc2)C1 (configuration not stated), which Potency is on record?
Its Potency is active: 50.1 µM.

With Cc1ncoc1C(=O)N1CCc2c([nH]c3ccccc23)C1C1CCCCC1 (configuration not stated) as the compound, how does the Potency read?
The Potency was active: 25.1 µM.

How did the Potency turn out when O=C(NCCC(=O)N1CCCC(C(F)(F)F)C1)c1ccccc1Cl (configuration not stated) was run?
Its Potency is inconclusive: 70.8 µM [inhibitor, single point].

Which Potency does the source give for COC(=O)c1c(NC(=O)Cc2ccccc2)sc2c1C(C(=O)OC)CC2 (configuration not stated) here?
Its Potency is inconclusive: 79.4 µM [inhibitor, partial curve].

With CCC(C(=O)Nc1ccc(C(=O)OC)cc1)n1c(=O)c(-c2ccccc2NC(C)=O)nc2ccccc21 (configuration not stated) as the compound, how does the Potency read?
Its Potency is inconclusive: 79.4 µM [inhibitor, single point].

How did the Potency turn out when O=C(CC1N=C2c3ccccc3N=C(SCc3ccc(Cl)cc3)N2C1=O)NCc1ccco1 (configuration not stated) was run?
Its Potency is inconclusive: 50.1 µM [inhibitor, partial curve].

For CC1CN(CCOc2cccc(Oc3ccccc3)c2)CC(C)O1 (configuration not stated), which Potency is on record?
Its Potency is active: 50.1 µM.

Which Potency does the source give for COCCOC(=O)C1=C(N)OC2=C(C(=O)CCC2)C1c1cccnc1 (configuration not stated) here?
The Potency was inconclusive: 89.1 µM [inhibitor, single point].

COc1cc2c(cc1OC)CN(C(=O)/C=C/c1ccccc1[N+](=O)[O-])CC2 was tested. Which Potency did it give?
Its Potency is inconclusive: 89.1 µM [inhibitor, single point].

Cc1cccc(N2CCN(C(=O)CCN3C(=S)NC(C)(C)CC3C)CC2)c1C (configuration not stated) was tested. Which Potency did it give?
Its Potency is inconclusive: 70.8 µM [inhibitor, single point].

With COc1ccc(/C(O)=C2/C(=O)C(=O)N(CCN3CCOCC3)C2c2ccc(C)cc2)cc1 (configuration not stated) as the compound, how does the “activity change, negative = inhibition” value read?
The value was inactive: -20.1% [at 57.1 µM].

For Cc1cc(F)ccc1NC(=O)CCS(=O)(=O)c1ccc2c(c1)NC(=O)CO2, which “activity change, negative = inhibition” value is on record?
Its value is inactive: 0.733%.

For O=C(NCc1ccc(F)cc1)c1cc(-c2cccs2)on1, which “activity change, negative = inhibition” value is on record?
Its value is inactive: 13%.

O=C(CCN1CCN(C(c2ccccc2)c2ccccc2)CC1)N/N=C/c1ccc(O)cc1O was tested. Which Potency did it give?
Its Potency is inconclusive: 44.7 µM [inhibitor, partial curve].

With Fc1ccc(C2c3[nH]c4ccccc4c3CCN2CCCn2cccn2)cc1 (configuration not stated) as the compound, how does the Potency read?
The Potency was active: 39.8 µM.

CCn1c(N)c(C(=O)NCc2ccco2)sc1=S was tested. Which Potency did it give?
The Potency was inconclusive: 79.4 µM [inhibitor, single point].

With CC1=C(C(=O)O)N2C(=O)C(NC(=O)c3c(F)cccc3F)C2SC1 (configuration not stated) as the compound, how does the Potency read?
The Potency was inconclusive: 89.1 µM [inhibitor, single point].

For CN(C)c1ccc(CN(C(=O)/C=C/c2ccco2)C2CCS(=O)(=O)C2)cc1 (configuration not stated), which Potency is on record?
Its Potency is inconclusive: 44.7 µM [inhibitor, partial curve].

Which “activity change, negative = inhibition” value does the source give for Cc1ccc(C(=O)N2CCC(C)CC2)cc1C here?
The value was inactive: 1.77%.

Which Potency does the source give for Cc1cc(C(=O)C(C)OC(=O)C2=NNC(=O)CC2)c(C)n1-c1ccc(OC(F)F)cc1 (configuration not stated) here?
The Potency was inconclusive: 89.1 µM [inhibitor, single point].

CC(C)OCCCn1c(SCc2ccccc2C#N)nc2c(sc3ccccc32)c1=O was tested. Which “activity change, negative = inhibition” value did it give?
The value was inactive: -0.749%.

How did the Potency turn out when O=C(c1ccco1)N1CCN(Cc2ccccc2F)CC1 was run?
The Potency was inconclusive: 89.1 µM [inhibitor, single point].

Which Potency does the source give for Cn1cc(S(=O)(=O)N2CCCCCC2)cc1C(=O)N1CCN(c2ccc(F)cc2)CC1 here?
Its Potency is inconclusive: 70.8 µM [inhibitor, single point].

Which “activity change, negative = inhibition” value does the source give for CCOc1ccc(NC(=O)C(=O)NCCc2csc(-c3ccc(F)cc3)n2)cc1 here?
The value was inactive: 4.09%.

With COc1ccc(NC(=O)OCCN2CCN(Cc3ccccc3)CCC2=O)cc1 as the compound, how does the Potency read?
Its Potency is inconclusive: 89.1 µM [inhibitor, single point].

For COc1ccc(N(C(=O)CNC(=O)c2cccs2)C(C(=O)NC2CCCC2)c2cccnc2)cc1 (configuration not stated), which “activity change, negative = inhibition” value is on record?
The value was inactive: -15.2%.

For Oc1cc(-n2cccn2)c(O)cc1-n1cccn1, which Potency is on record?
Its Potency is active: 31.6 µM.

With Cc1ncc(N=Nc2ccccc2)c(-c2ccccc2)n1 as the compound, how does the Potency read?
Its Potency is active: 14.1 µM.

How did the Potency turn out when O=C(NCc1ccccc1)Nc1cccn(Cc2c(F)cccc2Cl)c1=O was run?
The Potency was inconclusive: 70.8 µM [inhibitor, single point].

For Cc1cc(OCC(=O)Nc2ccc(-c3nc4cc(Cl)ccc4o3)cc2)cc(C)c1Cl, which “activity change, negative = inhibition” value is on record?
The value was inactive: -4.16%.

How did the Potency turn out when O=C(COc1coc(CN2CCN(Cc3ccccc3)CC2)cc1=O)Nc1ccccc1 was run?
Its Potency is inconclusive: 56.2 µM [inhibitor, partial curve].

How did the Potency turn out when Cc1ccc(NCc2nnc(SCC(=O)OC3CCCCC3)o2)c(C)c1 was run?
Its Potency is inconclusive: 79.4 µM [inhibitor, single point].

Which Potency does the source give for COc1ccc(S(=O)(=O)N(CC(=O)NCc2ccco2)c2ccc(C)cc2)cc1OC here?
The Potency was inconclusive: 79.4 µM [inhibitor, partial curve].

For Cn1nc(-c2ccccc2)cc1NC(=O)c1ccc(Cl)cc1, which “activity change, negative = inhibition” value is on record?
Its value is inactive: 31.6%.

For CC(=O)c1ccc(OCC(=O)Nc2ccc(N3CCCCC3)cc2)cc1, which Potency is on record?
The Potency was active: 44.7 µM.

With COc1ccc(OC)c(CN2CCN(C(=O)c3cccc(S(=O)(=O)Nc4ccccc4OC)c3)CC2)c1 as the compound, how does the Potency read?
Its Potency is inconclusive: 89.1 µM [inhibitor, single point].

With COCCNC(=O)c1cnn(-c2ccc(C)cc2C)c1C1CCN(C(=O)OC(C)(C)C)CC1 as the compound, how does the “activity change, negative = inhibition” value read?
Its value is inactive: 5.66% [at 57.1 µM].

Which “activity change, negative = inhibition” value does the source give for Cc1ccc(NC(=O)CSc2ncc3c(n2)-c2ccccc2N(Cc2cccc(F)c2)S3(=O)=O)cc1F here?
Its value is inactive: -8.65%.

How did the Potency turn out when [O-]/C(=C(\C(=S)NCc1ccc2c(c1)OCO2)[n+]1ccccc1)c1ccc(Cl)s1 was run?
The Potency was active: 44.7 µM.

O=C1c2ccccc2C(=O)C1(c1ccccc1)N1CCN(c2cccc(Cl)c2)CC1 was tested. Which Potency did it give?
Its Potency is inconclusive: 3.98 µM [inhibitor, full curve].

Which Potency does the source give for O=C(COC(=O)Cc1ccc(S(=O)(=O)N2CCOCC2)s1)NCc1ccc(Cl)cc1 here?
Its Potency is inconclusive: 50.1 µM [inhibitor, partial curve].

How did the Potency turn out when Cn1c(=O)n(C)c2cc(NS(C)(=O)=O)ccc21 was run?
Its Potency is inconclusive: 100 µM [inhibitor, single point].

With COCCNC(=O)Cc1ccc(NC(=O)N2CCCCc3ccccc32)cc1 as the compound, how does the Potency read?
The Potency was inconclusive: 89.1 µM [inhibitor, single point].

With CCc1nc(SCC(=O)c2ccccc2)c2ccccc2n1 as the compound, how does the Potency read?
The Potency was inconclusive: 70.8 µM [inhibitor, single point].

With COc1ccccc1/C=C/c1nc(C#N)c(N2CCCCC2)o1 as the compound, how does the Potency read?
Its Potency is inconclusive: 44.7 µM [inhibitor, partial curve].

How did the Potency turn out when CCOc1cc(-c2sc(Nc3cc(C)ccc3OC)n[n+]2-c2ccccc2)ccc1OC was run?
Its Potency is active: 56.2 µM.

Which “activity change, negative = inhibition” value does the source give for CCn1c(SCC(=O)Nc2sc3c(c2C#N)CCC(C(C)(C)C)C3)nnc1-c1ccco1 (configuration not stated) here?
Its value is inactive: 1.64%.

For COC(=O)c1c(NC(=O)CSc2nnc(C)c(=O)[nH]2)sc(C)c1C, which Potency is on record?
Its Potency is inconclusive: 70.8 µM [inhibitor, partial curve, poor fit].

Which “activity change, negative = inhibition” value does the source give for O=c1c2nnn(-c3ccc(Cl)cc3)c2ncn1Cc1ccccn1 here?
The value was inactive: 3.06%.

Cc1ccc(N=C2NC(=O)/C(=C/c3cn(C)c4ccccc34)S2)cc1C was tested. Which Potency did it give?
The Potency was inconclusive: 8.91 µM [inhibitor, full curve].

Which Potency does the source give for Oc1ccc(COCc2ccccc2)c2cccnc12 here?
Its Potency is active: 22.4 µM and active: 28.2 µM.

How did the Potency turn out when O=C(c1ccc(CSc2ccccc2)cc1)N1CCN(c2ccccc2)CC1 was run?
The Potency was inconclusive: 35.5 µM [inhibitor, partial curve].
